Laboratory results reported in the supplement of paper PMC3724861.
This is one part of the list.

system: T1, Caupolican (Caup) homeodomain DNA-binding domain; experiment: PBM E-score (8-mer, recovered from the published 9-mer minima) (E-score (dimensionless, -0.5 to 0.5)); Drosophila protein; higher = stronger relative binding preference, active = 0.31 or more
T1 sequence: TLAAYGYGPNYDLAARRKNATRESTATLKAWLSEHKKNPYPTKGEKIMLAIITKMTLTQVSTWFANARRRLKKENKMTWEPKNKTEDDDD
Method in brief: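 Caup's homeodomain DNA-binding domain (residues 214-303) was produced by in vitro transcription and translation and applied at 100 nM to custom-designed protein binding microarrays. Each value is an enrichment score giving relative binding preference for a short DNA word; higher means stronger. Published 9-mer scores were the minimum of their two constituent 8-mer scores, and the 8-mer values were recovered from those minima. A cutoff of 0.31 marks candidate binding sequences.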

| Sequence | PBM E-score |
| --- | --- |
| CGAGTCCC | inactive: -0.151 |
| CAATAGGG | inactive: -0.0976 |
| ACCTAGCG | inactive: -0.129 |
| AGGGGCGG | inactive: -0.247 |
| ATAGCTGG | inactive: -0.0765 |
| AAATTTGC | inactive: 0.022 |
| AAATACTA | inactive: 0.0932 |
| ATTGACAA | inactive: 0.289 |
| CCAGCAAA | inactive: 0.0234 |
| TATACCGA | inactive: 0.107 |
| AAGCCTGC | inactive: -0.156 |
| CACGTAAG | inactive: 0.0839 |
| CCGCTGTC | inactive: -0.0395 |
| GAGGACCC | inactive: -0.242 |
| GATGAAGC | inactive: 0.0263 |
| TCTACCCA | inactive: -0.0395 |
| GGCTCGAA | inactive: -0.138 |
| GTCTGGTA | inactive: 0.149 |
| CGTATGAC | inactive: 0.132 |
| CATGGGTA | inactive: 0.068 |
| ATAATCAG | inactive: 0.101 |
| AAAAGCAC | inactive: -0.0868 |
| ACACGTTA | inactive: 0.29 |
| AAAAATTC | ≥ 0.174 |
| ACCATAGC | inactive: -0.0174 |

| Sequence | PBM E-score |
| --- | --- |
| ATTAGCCG | inactive: -0.0126 |
| CTTGTTGC | inactive: 0.269 |
| TAACAACA | active: 0.406 |
| CACCTCCA | inactive: -0.0471 |
| CACGTGCG | inactive: -0.0115 |
| GTATTGTA | inactive: 0.277 |
| TAGGATGA | inactive: -0.0023 |
| ATAGTTAG | inactive: 0.00654 |
| ATGTAGAC | inactive: 0.267 |
| ATATTGTA | ≥ 0.306 |
| CCTTACCG | inactive: -0.0775 |
| AGCATGCA | ≥ 0.122 |
| AGACACCT | inactive: 0.0759 |
| CACTAATA | inactive: 0.118 |
| CTCAAGAG | inactive: -0.197 |
| AGCTCTAA | inactive: -0.00541 |
| CTGCGACA | inactive: 0.117 |
| GGGCTACC | inactive: -0.2 |
| CACACGGA | inactive: 0.00106 |
| CATCGATG | inactive: 0.131 |
| AAGCCAAG | inactive: -0.144 |
| ATTGGACA | inactive: 0.289 |
| CAATGATC | inactive: 0.0114 |
| ATAGTACG | inactive: 0.0984 |
| CCACGGGC | inactive: -0.226 |

| Sequence | PBM E-score |
| --- | --- |
| AGATTAAC | inactive: 0.051 |
| ATACCAGG | inactive: 0.132 |
| CCCGCTCG | inactive: -0.208 |
| CTCTCAGC | inactive: -0.19 |
| AGTTTGAA | inactive: 0.0767 |
| ACCGCAGC | inactive: -0.241 |
| GTTTAAGA | inactive: -0.0184 |
| ACGCAGAA | inactive: -0.00806 |
| ACAATTGA | inactive: 0.191 |
| AGCAGGTC | inactive: -0.0493 |
| AGACTGCA | inactive: 0.0445 |
| GTTTTAGA | inactive: 0.0271 |
| CCTAAAGG | inactive: -0.131 |
| AGCTGCAG | inactive: -0.122 |
| ATCACTCG | inactive: 0.079 |
| CCAGGATC | inactive: -0.129 |
| CCCAAATC | inactive: -0.0496 |
| CCAGTCCA | inactive: -0.134 |
| CATCTGTC | inactive: 0.0767 |
| AACAGGAA | inactive: 0.178 |
| CTATTATA | inactive: 0.0993 |
| ATGTTAGA | active: 0.329 |
| CTAACACA | inactive: 0.276 |
| CCCGAGCC | inactive: -0.232 |
| CCACTACC | inactive: -0.0803 |

| Sequence | PBM E-score |
| --- | --- |
| CCTCCGAC | inactive: -0.179 |
| GGAGCGCC | inactive: -0.303 |
| AACTACGA | inactive: 0.0922 |
| TCGCCCCA | inactive: -0.176 |
| GCTCCTTA | inactive: -0.124 |
| TATTGGCA | ≥ 0.106 |
| CACTAGGA | inactive: -0.0624 |
| AAGCACTA | ≥ 0.116 |
| AAAAACCG | inactive: 0.0642 |
| TGCAGGAA | inactive: -0.0534 |
| CCTAATTC | inactive: 0.0704 |
| ATAGGCTA | inactive: -0.013 |
| CTAGACAC | inactive: 0.16 |
| GTAGATTA | inactive: 0.179 |
| GAAGAGAA | inactive: -0.154 |
| AATTTCGA | inactive: 0.027 |
| ATAGGAGC | inactive: -0.0144 |
| TATCTGAA | inactive: -0.0172 |
| CTCGACCC | inactive: -0.12 |
| AAGACGGA | inactive: -0.102 |
| GTTAACAA | inactive: 0.296 |
| AACAGTTC | inactive: 0.133 |
| CTCTTTGC | inactive: -0.105 |
| CAACTTTC | inactive: -0.00516 |
| GAGAGGTA | inactive: -0.0933 |

| Sequence | PBM E-score |
| --- | --- |
| CGGTGCAG | inactive: -0.165 |
| GGACCCCA | inactive: -0.21 |
| ACCTCTAC | inactive: 0.00374 |
| CATTGTCC | inactive: 0.156 |
| ACATCGTC | inactive: 0.251 |
| AATACTTC | inactive: 0.0482 |
| CGTAACCC | inactive: -0.126 |
| CCGATTAA | inactive: 0.0142 |
| GCCGTCCC | inactive: -0.25 |
| ACTCGACG | inactive: 0.1 |
| CCTCGGAC | inactive: -0.125 |
| GCCTCCGC | inactive: -0.247 |
| GTCGCACA | inactive: 0.00747 |
| GCGCCAAA | inactive: -0.211 |
| CATATGGG | inactive: -0.03 |
| CGATGAAA | inactive: -0.0122 |
| AGTAAACG | inactive: 0.0864 |
| AGATGCCT | ≥ 0.0242 |
| CAAATCAC | inactive: -0.00324 |
| AACATCGA | ≥ 0.297 |
| CCGTTAAA | inactive: 0.0231 |
| AGTCCTTA | inactive: -0.00086 |
| CTCAGAAC | inactive: 0.0358 |
| CACAGCCG | inactive: -0.0958 |
| GCCAGGGA | inactive: -0.243 |

| Sequence | PBM E-score |
| --- | --- |
| ATCACAAA | inactive: 0.124 |
| AGCGTGGA | inactive: -0.121 |
| GGGGTAAC | inactive: -0.00369 |
| CGGTTCAA | inactive: -0.15 |
| GGAGCTCA | inactive: -0.154 |
| ACAGGCTC | inactive: 0.0024 |
| ATTGCTAG | inactive: 0.0556 |
| CGTGCCAC | inactive: -0.136 |
| GCTTTCAA | inactive: -0.0115 |
| CGTGTTAA | active: ≥ 0.33 |
| GGCACACA | inactive: 0.00306 |
| CATCCGAG | inactive: 0.0288 |
| CGGCTACG | inactive: -0.194 |
| ACAAAGGG | inactive: -0.0556 |
| GAGTCTAA | inactive: -0.0512 |
| CGACAGAA | inactive: 0.0952 |
| ATGTTTAA | active: 0.367 |
| AGAGAACG | inactive: 0.0198 |
| ATACTGTC | inactive: 0.0971 |
| AGGCGCGC | inactive: -0.21 |
| CTCCTGCA | inactive: -0.135 |
| AGAAGTCA | inactive: 0.0275 |
| AAGGGTTA | inactive: 0.0113 |
| AAATAATT | inactive: 0.163 |
| GCGCCCCC | inactive: -0.316 |

| Sequence | PBM E-score |
| --- | --- |
| CCGTCGAG | inactive: -0.0945 |
| ATTTTGCG | inactive: 0.0398 |
| CGGCGCAC | inactive: -0.219 |
| CCGAATGA | inactive: 0.00755 |
| AGCCTCAC | inactive: -0.108 |
| ACGGGGGG | inactive: -0.314 |
| AATATTCC | inactive: 0.0785 |
| ACCACCGT | inactive: 0.0306 |
| AATGAACC | inactive: -0.0632 |
| ATCTCCTC | inactive: -0.082 |
| CTACGCTC | inactive: -0.105 |
| AGTAGGGA | inactive: -0.0548 |
| GCTCTGTA | inactive: 0.105 |
| AGTAAAAA | inactive: 0.147 |
| CTATGAAG | inactive: -0.0724 |
| AAGGTGGC | inactive: -0.102 |
| GCGTGAAC | inactive: -0.0106 |
| CGTACGAG | inactive: -0.0397 |
| CGTTTGAA | inactive: -0.0324 |
| ATCGGGCG | inactive: -0.115 |
| CGATGAGC | inactive: -0.0457 |
| AATAGTAC | inactive: 0.186 |
| ATGCGCAT | ≥ 0.0385 |
| GATACGAA | inactive: 0.129 |
| ACAGTACG | inactive: 0.0926 |

| Sequence | PBM E-score |
| --- | --- |
| ACCCGGCA | ≥ -0.137 |
| GACGCCGC | inactive: -0.188 |
| CAACAAAG | inactive: 0.159 |
| CCGCAATA | inactive: 0.0192 |
| ACTCTATC | inactive: 0.0542 |
| GGTGCTTA | inactive: -0.121 |
| CAAATCGA | ≥ 0.137 |
| ATACGTTC | inactive: 0.0354 |
| CCGTTTGC | inactive: -0.172 |
| GAGGACTC | inactive: -0.122 |
| AGATATTG | inactive: 0.0643 |
| AACTCCTA | inactive: 0.00852 |
| AAGCACTG | inactive: 0.0317 |
| GTACCTGA | inactive: 0.158 |
| TATAAGCA | inactive: 0.0735 |
| CTGTGGAC | inactive: -0.0237 |
| CCCCGGGC | inactive: -0.32 |
| GTAGTTCA | inactive: 0.136 |
| CAAGGCAC | inactive: -0.068 |
| AGAAGTTG | inactive: -0.0169 |
| AGTGGGGG | inactive: -0.317 |
| TAATGTGA | inactive: 0.141 |
| ATGGAGCC | inactive: -0.097 |
| CAATCCTC | inactive: -0.0654 |
| CGGCCATC | inactive: -0.239 |

| Sequence | PBM E-score |
| --- | --- |
| ACGAATCA | inactive: 0.0895 |
| AATATGCT | inactive: 0.121 |
| AACTGCAT | inactive: 0.12 |
| TGACGCAA | inactive: -0.0112 |
| GGCAGAGA | inactive: -0.188 |
| AATATAAG | inactive: 0.113 |
| CCAGCTTA | inactive: -0.0387 |
| AACCTGAT | ≥ 0.153 |
| AATACTGT | inactive: 0.14 |
| CACCGGCG | inactive: -0.123 |
| CCAAAGGA | inactive: -0.0596 |
| ACATCAAA | inactive: 0.26 |
| ATTTGAAA | inactive: 0.105 |
| ACAACCCT | inactive: 0.145 |
| ACCGTACG | inactive: -0.00187 |
| GGATCGAC | inactive: -0.017 |
| AGAATTTC | inactive: -0.0921 |
| ATCCGGTA | inactive: 0.0596 |
| ATCCGGAT | inactive: 0.00243 |
| ATGTCCAG | inactive: 0.2 |
| AGAGATGC | inactive: 0.0307 |
| CGACGTAG | inactive: -0.0808 |
| GCTTATCC | inactive: -0.00552 |
| CAATTCGA | inactive: 0.042 |
| ATGTACAG | active: 0.343 |
